PubChem BioAssay AID463173 (ICCB-Longwood Screening Facility, Harvard Medical School, 2010)
Out of some 52,000 compounds screened, about 1,700 (3.3%) were called active. Cut-off read from the data, not from the text of the source: active = survival mostly below about 52% (no sharp cut-off); inactive = mostly above about 56%. Some of the results follow.

What follows are compounds tested on Wild type (assay: growth inhibition of S. aureus wild type versus tarO mutant, primary screen, teichoic acid synthesis inhibitors, RN4220, OD600 (AID 463173)). Details: S. aureus RN4220 wild type/DeltatarO growth, OD600, 18 h, stronger effect = lower value, screened at 18.75 µg/mL (by protocol).

Compound	survival
Cc1ccc(CNC(=O)Cn2ncc3c([nH]c4ccc(C)cc43)c2=O)cc1	inactive: 79%
COc1cccc(N2CCN(C(=O)c3cc4c(=O)n(Cc5cccs5)ccc4nc3C)CC2)c1	inactive: 69%
COc1ccccc1NC(=O)CN1C(=O)CC(c2ccc(C)c(C)c2)=Nc2ccccc21	inactive: 77%
N#CCSc1cccc2cccnc12	inactive: 103%
CC1Oc2ccccc2N(CC(=O)Nc2ccccc2F)C1=O (stereo not given)	inactive: 109%
Cc1cccc(NC(=O)Cn2cnc(S(=O)(=O)N3CCCC3)c2)c1C	inactive: 68%
Nc1cc(N)nc(SCc2noc(-c3ccc(Cl)cc3)n2)n1	inactive: 112%
COc1ccccc1CCNC(=O)Cc1c(C)c2cc3c(C(C)(C)C)coc3c(C)c2oc1=O	inactive: 115%
COc1ccc(CCNC(=O)c2ccc(-n3c(C)cc4c3CCCC4)cc2)cc1OC	inactive: 83%
CCn1c(CC(=O)Nc2ccccc2)n[nH]c1=S	inactive: 107%
CCCc1cc(=O)[nH]c(SCc2nc(-c3ccc(C)cc3)no2)n1	inactive: 73%
CCCSc1ncc(Cl)c(C(=O)Nc2c(C(=O)Nc3ccccc3)oc3ccccc23)n1	inactive: 84%
COc1ccc(N2CCN(S(=O)(=O)CCNC(=O)COc3cccc(OC)c3)CC2)cc1	inactive: 72%
CC(C)Oc1ccc(CNC(=O)Nc2ccc3c(c2)N(C)C(=O)c2ccccc2S3)cc1	inactive: 124%
Cc1cccc(Cn2c(SCc3ccc(C(=O)N4CCC(C)CC4)cc3)nc3ccncc32)c1	inactive: 86%
Cc1ccc(NC(=O)NCCOCCn2c(=O)oc3ccccc32)cc1F	inactive: 83%
CCC1CCCCN1C(=O)/C=C/c1ccccc1Cl (stereo not given)	inactive: 110%
O=C(OCC1CCCO1)c1ccc2c(c1)N(Cc1cccc(Cl)c1)C(=O)c1ccccc1S2(=O)=O (stereo not given)	inactive: 84%
Cc1cccc(NC(=O)c2c(NC(=O)c3ccccc3)sc3c2CCCC3)c1	inactive: 82%
Cc1cc(C)c2c(n1)nn1c(C)c(CCC(=O)NCc3ccccc3Cl)c(C)nc21	inactive: 84%
CN1CCSc2ccc(C(=O)NCc3ccccc3F)cc21	inactive: 142%
COC(=O)c1c(C)sc(-c2c(-c3ccc4c(c3)OCCO4)[nH]c3[nH]c(=O)[nH]c(=O)c23)c1O	inactive: 92%
CCOc1ccc(-c2cc3nc(C4CCN(C(=O)OC(C)(C)C)CC4)c(C(=O)Nc4ccc(C)cc4Cl)cn3n2)cc1	inactive: 85%

Compound	survival
O=S(=O)(c1ccc(Br)cc1)c1nnn2c1nc(Nc1cccc(C(F)(F)F)c1)c1sccc12	inactive: 95%
COc1ccc(NC(=O)CS(=O)CC(=O)Nc2cccc(F)c2)cc1 (stereo not given)	inactive: 105%
COc1ccc(Cl)cc1NC(=O)CSc1c2c(nc3ccccc13)CCC2	inactive: 70%
COc1cc(C(=O)Nc2nc3c(s2)Cc2c(Br)ccc(OC)c2-3)cc(OC)c1OC	inactive: 84%
Cc1cccc(-n2c(CCN3C(=O)c4ccccc4C3=O)nc3ccccc3c2=O)n1	inactive: 112%
CCC(Sc1nc2ccccc2c2nc(CCc3c(C)n[nH]c3C)nn12)C(=O)Nc1ccc(OC)cc1 (stereo not given)	inactive: 72%
O=C(Nc1nnc(N2CCCCCC2)s1)Nc1ccccc1C(F)(F)F	inactive: 69%
CCN(c1ccccc1)S(=O)(=O)c1ccc(NC(=O)c2cc(=O)c3cc(C)ccc3o2)cc1	inactive: 96%
O=C(c1ccc2c(c1)N(Cc1ccc(F)cc1)C(=O)c1ccccc1S2=O)N1CCOCC1 (stereo not given)	inactive: 87%
COc1ccccc1-c1nnc(SCCOc2ccccc2C)o1	inactive: 78%
CC(C)c1ccc(S(=O)(=O)c2cnc(SCC(=O)Nc3cccc(C(F)(F)F)c3)nc2N)cc1	inactive: 80%
CCc1cccc(CC)c1NS(=O)(=O)c1ccc2c(c1)CCN2C(=O)C1CC1	inactive: 80%
Cc1ccc(C2=NNC(c3cccnc3)=Nc3ccc(F)cc32)o1	inactive: 99%
Cc1ccc(CNC(=O)c2nnc(Cc3cccc(F)c3)o2)cc1	inactive: 91%
CCOC(=O)c1cc(-c2ccc(OC)c(S(=O)(=O)Nc3ccc(OC)cc3OC)c2)on1	inactive: 129%
CCC(=O)/C=C1/Sc2ccc(C)cc2N1CC	inactive: 113%
O=C(Nc1ccc2nc(SCCOc3ccccc3Cl)sc2c1)c1cccs1	inactive: 72%
COC(=O)c1sccc1S(=O)(=O)N1CCN(c2ccccc2OC)CC1	inactive: 76%
COc1ccc(/C=C2\SC(=S)N(CC(=O)NCCO)C2=O)cc1	inactive: 114%
COc1ccc(N2CC(C(=O)Nc3ccc(NC(C)=O)cc3)CC2=O)cc1 (stereo not given)	inactive: 73%
CCN1C(=O)c2ccccc2S(=O)c2ccc(C(=O)NCc3ccc(F)cc3)cc21 (stereo not given)	inactive: 85%
COCCCNC(=O)C(=O)NCC(c1ccc2c(c1)OCO2)N1CCOCC1 (stereo not given)	inactive: 87%
Cc1ccc(C)c(S(=O)(=O)c2nnn3c2nc(N2CCOCC2)c2sccc23)c1	inactive: 113%

Compound	survival
CC(C)N(Cc1ccccc1)c1ncnc2c1nnn2C	inactive: 73%
CCOc1ccc(C(c2c(O)cc(C)n(CCOC)c2=O)N2CCN(c3ccccc3F)CC2)cc1 (stereo not given)	inactive: 72%
CCc1cccc(NC(=O)CCc2c(C)nc3c(c2C)c(=O)n(C)c(=O)n3C)c1	inactive: 124%
Cc1ccc(CNC(=O)CCSCc2ccccc2F)cc1	inactive: 74%
O=C(NCc1cccnc1)c1nn(-c2ccccc2F)nc1CO	inactive: 94%
Cc1ccc(N(C(=O)COc2ccccc2C)S(=O)(=O)c2ccc(Cl)cc2)cc1	inactive: 73%
Cc1cc(C)c2oc(C(=O)Nc3sc4c(c3C(=O)NCc3ccco3)CCCC4)cc(=O)c2c1	inactive: 82%
Cc1ccc(NC(=O)c2cccc(N3CCCS3(=O)=O)c2)cc1	inactive: 80%
CN(CC(=O)Nc1ccc(Cl)cc1)C1CCCCC1	inactive: 110%
Cc1ccc(Nc2c(-c3cc(Br)ccc3F)nc3cc(C)ccn23)cc1	active: 0%
CC(CN1CCOCC1)OC(=O)C(C)(c1ccccc1)c1ccccc1 (stereo not given)	inactive: 109%
CCN(CC)S(=O)(=O)c1cc(-c2nnc(Nc3ccc(OC)c(C(N)=O)c3)c3ccccc23)ccc1C	inactive: 84%
CCOCCCNC(=O)c1ccc(NC(=O)N2CCCCc3ccccc32)cc1	inactive: 70%
COc1ccccc1N1CCN(c2ccc(=O)n(CC(=O)Nc3ccc(F)c(F)c3)n2)CC1	inactive: 89%
Cc1c(NC(=O)c2ccc(Cl)cc2)cc(C(C)C)c(O)c1S(=O)(=O)c1ccc(Cl)cc1	inactive: 73%
COc1ccccc1NC(=O)Cn1c(=O)n(-c2ccc(C)cc2)c(=O)c2ccc(C(=O)NCc3ccco3)cc21	inactive: 71%
Cc1ccc(S(=O)(=O)Cn2nnnc2CN2CCC(Cc3ccccc3)CC2)cc1	inactive: 90%
CCOc1ccc(NC(=O)N2CCC(CN3CCc4ccccc4C3)CC2)cc1	active: -3%
O=C(NCc1ccc(Cl)cc1)C1CCCN(C(=O)c2cnn(-c3ccc(F)cc3)c2-n2cccc2)C1 (stereo not given)	inactive: 75%
O=C(CCn1c(=O)c2cccn2c2ccc(F)cc21)NCCc1ccccc1	inactive: 57%
C/C(Cc1nc2ccccc2[nH]1)=N/Nc1ccccc1	inactive: 40%
CCCc1cc(C(=O)Nc2c(C)nn(Cc3ccc(C)cc3)c2C)no1	inactive: 72%
Cc1ccc(C)c(Nc2cc(C(=O)NC3CCCCC3)c3ccccc3n2)c1	inactive: 84%

Compound	survival
CCC(=O)N1CCc2cc(CNC(=O)C(CC)c3ccccc3)ccc21 (stereo not given)	inactive: 73%
Cc1ccccc1Cn1c(=O)n(CCc2ccccc2)c(=O)c2c(C)c(C)sc21	inactive: 41%
COc1cccc(OCCSc2nc3ccccc3n2CC(=O)N2CCCCC2)c1	inactive: 78%
COc1ccc(-c2nc(CN3CCC(C(=O)NCCCOC(C)C)CC3)c(C)o2)cc1OC	inactive: 80%
COc1cccc(-n2cc(C(=O)NCc3ccccc3OC)c3ccccc3c2=O)c1	inactive: 87%
CCc1cc2c(cc3c(=O)n(CC(=O)NCCc4ccc(OC)c(OC)c4)ncn32)s1	inactive: 96%
COC(=O)c1cc(S(=O)(=O)NCC2CCN(Cc3cccc(F)c3)CC2)c[nH]1	inactive: 90%
COc1cc(OC)c(C2Nc3ccccc3-c3nnc(SCc4ccccc4)nc3O2)cc1OC (stereo not given)	inactive: 77%
COc1ccc(OC)c(C2N=C(N)Nc3nc4ccccc4n32)c1 (stereo not given)	inactive: 72%
CCN(CC)Cn1c(=S)sc2ccccc21	inactive: 92%
O=C(CCn1ccc2cc(S(=O)(=O)N3CCCC3)ccc21)NCc1cccc(F)c1	inactive: 55%
COC(=O)CSc1nc(-c2ccc(F)cc2)cc(C(F)(F)F)n1	inactive: 123%
Cc1cccc(C)c1-n1ncc(C(=O)NCCN2CCOCC2)c1C1CCN(C(=O)OC(C)(C)C)CC1	inactive: 75%
COc1ccc(NC(=O)Cn2c(=O)n(Cc3nc(C)no3)c(=O)c3cc4c(cc32)OCO4)cc1OC	inactive: 70%
Cc1nc(-c2ccc(Cl)cc2)sc1CCNC(=O)c1ccc(C(F)(F)F)cc1	inactive: 153%
Nc1ccc2nc(SCC(=O)O)sc2c1	inactive: 84%
Cc1ccc(C)c(NC(=O)CCn2nc(C)c3c(C)n(-c4ccccc4)nc3c2=O)c1	active: 10%
COC(=O)CSc1nc2ccc(C(C)C)cc2cc1C#N	inactive: 103%
CCC(C(=O)Nc1ccccc1C(=O)OC)n1nc(C)c2c(C)n(-c3ccc(C)cc3)nc2c1=O (stereo not given)	inactive: 66%
Cc1cccc(-c2nn3c(=O)cc(CN4CCN(S(=O)(=O)c5ccc(Cl)cc5)CC4)nc3s2)c1	inactive: 74%
Cc1ccc(C)c(NC(=O)c2ccc3c(c2)CCN3S(C)(=O)=O)c1	inactive: 114%
